The list shows a part of the results. These are further read-outs of the screen, such as a control signal, another cell line or another target. No call is given for them. Most of these compounds were active or inconclusive in the main read-out, so they are no random draw.

Results on 66 molecules are retold here after PubChem BioAssay AID1656 (Sanford-Burnham Center for Chemical Genomics, 2009).

This test in a line: inhibitors of hepatocyte lipid droplet formation, primary screen, imaging, high-throughput imaging, BODIPY stain (AID 1656).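 Further: cells counted across two imaged fields per well.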 The following applies: AML12 mouse hepatocytes, oleate lipid droplets, measured here: cell count, cytotoxicity flag, at 6.5 µM. The procedure, abridged:
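Assay system: AML12 hepatocytes (mouse) / Also added: 100 µM oleic acid challenge / Times: overnight treatment with compound plus oleate / Detection: high-content imaging of BODIPY-stained droplets and DAPI nuclei / Evaluation: % inhibition of lipid droplet signal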
On to `CC1C/C(=C/c2ccccn2)C(=O)/C(=C/c2ccccn2)C1` (stereo unspecified), for which the cell count worked out at 280 cells.
The value for `Cc1ccc(-n2nc(C)c3c(=O)[nH]c(C(F)(F)F)nc32)cc1` was 616 cells.
Next, `COC(=O)c1ccc2c(c1)NC(=O)C(N(CC(C)C)CC(C)C)S2` (stereo unspecified): 578 cells.
`N/C(Cc1ccc(Cl)cc1Cl)=N\OC(=O)c1ccc(Br)o1` had a cell count of 758 cells.
Next, `COc1cccc(/C=C/C(=O)NCCc2ccc(OC)c(OC)c2)c1`: 757 cells; `CCCSC(=O)N(CC)CC(=O)Nc1c(CC)cccc1CC`: 556 cells.
For `CC1=C(C(=O)OCC2CCCO2)C(c2ccc(Cl)c(Cl)c2)NC(=O)N1` (stereo unspecified), the cell count was 664 cells.
Next, `COc1ccc(C[C@H]2CN3C(=NC[C@H]3Cc3ccccc3)N2CCNC(=O)c2ccc(C)c(Br)c2)cc1`: 686 cells.
`CCCCOc1ccc(-c2ncc([N+](=O)[O-])cn2)cc1` returned a cell count of 741 cells.
Next, `CCOc1ccccc1NC(=O)CSCC(=O)Nc1ccccc1`: 759 cells.
As for `CCOC(=O)c1[nH]c2c(c1C)C(=O)CC(c1ccc(F)cc1)C2` (stereo unspecified), the cell count amounted to 296 cells.
Next, `CCOc1ccc(CCNC(=O)CCNS(=O)(=O)c2ccc(Br)cc2)cc1OCC`: 686 cells; `COCCCn1c(SCC(=O)Nc2ccc(NC(=O)c3ccco3)c(OC)c2)nc2ccccc2c1=O`: 754 cells.
Turning to `Cc1ccc(C(=O)NCCc2nc3ccccc3[nH]2)cc1[N+](=O)[O-]`, the cell count came out at 598 cells.
`COc1ccc(/C=C/C(=O)NCC2COc3ccccc3O2)c(OC)c1` (stereo unspecified) showed a cell count of 714 cells.
In turn, `CCOc1ccc(CCNC(=O)CN2CCN(Cc3ccc(F)cc3)C2=O)cc1OCC` returned a cell count of 715 cells.
Next, `CCOc1ccc(CCNC(=O)Cn2ncn3nc(-c4ccc(OC)cc4)cc3c2=O)cc1OCC`: 735 cells; `Cn1cccc1/C=C1\SC(=Nc2ccc(O)cc2)NC1=O`: 272 cells; `COc1ccc(C(C(=O)NC2CCCC2)N(CCC(C)C)C(=O)CCC(=O)Nc2cc(C)on2)cc1` (stereo unspecified): 786 cells.
Next, `Cc1c(C(=O)OC2CCCC2)[nH]c2c1C(=O)CC(c1ccco1)C2` (stereo unspecified): 233 cells; `COc1ccc(S(=O)(=O)N(CC(=O)N2CCCCCC2)c2ccccc2OC)cc1`: 780 cells.
`Cc1[nH]n(-c2ccccc2)c(=O)c1N=Nc1cccc(Cl)c1` showed a cell count of 837 cells.
`CCOc1ccccc1NS(=O)(=O)c1ccc(-c2cnc(C3CC3)o2)cc1` gave a cell count of 192 cells.
With `CCC1(c2ccccc2)NC(=O)N(CC(=O)NCc2ccc(OC)cc2)C1=O` (stereo unspecified), the cell count was 69 cells.
The value for `O=C1OCC2=C1C(c1ccc(F)cc1)c1cc3c(cc1N2)OCCO3` (stereo unspecified) was 70 cells.
Next, `Cc1c(NC(=S)N/N=C\c2ccccc2O)c(=O)n(-c2ccccc2)n1C`: 291 cells; `CCn1cc(CCCC(=O)NCc2cccc(OC)c2)c2ccccc21`: 848 cells.
Next, `Cc1ccc(C)c(NC(=S)c2ccc3ccccc3n2)c1`: 576 cells.
With `COc1ccc(CC(=O)Nn2c(-c3ccccc3)nc3ccccc3c2=O)cc1`, the cell count came out at 677 cells.
`Cc1ccc2nc(Cl)c(/C=N/NC(=O)[C@H]3C[C@@H]3c3ccccc3)cc2c1` showed a cell count of 685 cells.
As for `CCCc1nc2ccccc2c(C(=O)OC(C)C(=O)NCc2ccc3c(c2)OCO3)c1CC` (stereo unspecified), the cell count is 671 cells.
`COc1ccc2c(c1)c(/C=N/Nc1nc3ccccc3[nH]1)c(C)n2C`: the cell count came to 157 cells.
The value for `CC1=CC(=O)C=C(C)C1=NOc1ccccc1[N+](=O)[O-]` was 38 cells; that for `CCc1ccccc1NC(=O)C1=CC(c2cccs2)=NS(=O)(=O)N1C` was 780 cells.
Next, `O=C(O)CSCC(=O)Nc1ccc(C2CCCCC2)cc1`: 154 cells; `Cc1noc(C)c1C(=O)Nc1ccc(F)cc1F`: 771 cells.
For `Cc1ccc(-n2nc3c(=O)n(C(C)C(=O)NCCc4cccs4)nc(C)c3c2C)cc1` (stereo unspecified), the cell count was determined as 714 cells.
In turn, `CC(=O)C1=C(C)NC(SCSc2ccccc2)=C(C#N)C1c1cccnc1` (stereo unspecified) came in with a cell count of 556 cells.
Next, `COc1ccc2c(c1)C(C)=CC(C)(C)N2S(=O)(=O)c1ccc(Br)cc1`: 237 cells.
`CC(=O)Cc1nsc(NC(=O)c2ccc(COc3ccccc3Cl)o2)n1`: the cell count was 152 cells.
In turn, `CCOc1cc([C@@H]2C[C@H]3CN(c4ccccc4)C(=O)[C@]34CCCN24)ccc1OC` displayed a cell count of 696 cells.
Next, `CCN1CCN(Cc2ccc(NC(=O)c3ccc(C)c(NC(=O)C(=O)c4c[nH]c5ccccc45)c3)cc2C(F)(F)F)CC1`: 742 cells.
The value for `CCCOc1ccc(/C=N/Nc2ccccc2[N+](=O)[O-])c(OCCC)c1` was 704 cells; that for `COC(=O)c1ccc(CN2C(=O)c3ccccc3C2=O)o1` was 124 cells.
The value for `CC(C)Cn1c(N)c(C(=O)COC(=O)c2cc(C3CC3)nc3ccccc23)c(=O)n(C)c1=O` was 642 cells.
Molecule `Cc1ccc(NC(=O)N2CCC(C(=O)c3ccc(F)cc3)CC2)cc1` registered a cell count of 830 cells.
Next, `CCOc1ncccc1C(=O)N1CCN(c2cc(Cl)ccc2C)CC1`: 246 cells.
`COc1ccc(N2CCN(C(=O)c3cc(C)on3)CC2)cc1` showed a cell count of 811 cells.
The value for `COc1cc(C(=O)Nc2nc(-c3ccc(C)cc3)cs2)ccc1OCC(=O)N1CCOCC1` was 690 cells; that for `O=C(COC(=O)COc1ccc(Cl)cc1Cl)Nc1cccnc1Cl` was 734 cells; that for `COC(=O)c1cc(-c2ccc(OC)cc2)nc2nc(SC)[nH]c(=O)c12` was 766 cells.
Next, `CCCCOc1ccc(NC(=O)Cn2c(=O)ccc3c(C)cc(C)nc32)cc1`: 726 cells; `O=C(CC(=O)N/N=C/c1ccc(F)cc1)N/N=C/c1ccc(F)cc1`: 286 cells; `COc1ccc(Cl)c(NC(=O)C/C(C)=N/NC(=O)CCc2ccccc2)c1`: 798 cells.
For the molecule `COc1ccc(Cl)cc1NC(=O)Nc1ccc(C(=O)N2CCCC2)cc1`, the cell count stood at 813 cells.
Next, `Clc1ccccc1CN(Cc1ccco1)Cc1nnnn1C1CCCC1`: 748 cells; `CCOc1ccc(CCNC(=O)CS(=O)Cc2nc(-c3ccccc3C)oc2C)cc1OCC` (stereo unspecified): 761 cells; `O=C(CN1C(=O)NC2(CCOc3ccccc32)C1=O)c1ccc(Br)cc1` (stereo unspecified): 695 cells.
The value for `CC(C)CN1C(=O)/C(=C/c2c(N3CCc4ccccc4C3)nc3ccccn3c2=O)SC1=S` was 700 cells; that for `CCn1cc([N+](=O)[O-])c(C(=O)N2N=C(c3ccc4ccccc4c3)CC2c2cc(Br)ccc2O)n1` (stereo unspecified) was 779 cells.
On to `CCOc1ccc2c(c1)-c1c(ssc1=S)C(C)(C)N2C(=O)c1ccco1`, for which the cell count turned out to be 742 cells.
As to `CCOc1ccc(-c2csc(NNC3=NCCCCC3)n2)cc1`, the cell count came out at 668 cells.
In turn, `COc1cccc(-c2nc(NCc3ccccc3)c3ccccc3n2)c1O` had a cell count of 827 cells.
Next, `Cc1cc(C=O)c(O)cc1O`: 826 cells.
Next, `COc1ccc(COc2cc(-c3cccc(OC)c3)nc3ccc(N)cc23)cc1`: 39 cells.
The value for `O=c1[nH]cnc2sc3c(c12)CCN(Cc1ccccc1)C3` was 558 cells.
